# According to PubChem BioAssay AID2147 (National Center for Advancing Translational Sciences (NCATS), 2009):
# Screen size: about 230,000 compounds; about 3,600 (1.6%) were called active. The shares of active, inactive and inconclusive entries below differ from those in the screen. Calls come from the whole dose curve; as a rule, active = well fitted inhibition curve with a large enough effect (not every such curve was filed as active); inconclusive = small, poorly fitted or top-dose-only effect, or another doubt; inactive = no such curve, though single readings can be large or run the other way. Potencies beside an inconclusive call are fits to weak or partial responses and may not hold up.
# Target: Lysine-specific demethylase 4E (Homo sapiens) (UniProt B2RXH2)
# Chain of UniProt B2RXH2 (B2RXH2 whole entry, looked up, the tested form may be a part): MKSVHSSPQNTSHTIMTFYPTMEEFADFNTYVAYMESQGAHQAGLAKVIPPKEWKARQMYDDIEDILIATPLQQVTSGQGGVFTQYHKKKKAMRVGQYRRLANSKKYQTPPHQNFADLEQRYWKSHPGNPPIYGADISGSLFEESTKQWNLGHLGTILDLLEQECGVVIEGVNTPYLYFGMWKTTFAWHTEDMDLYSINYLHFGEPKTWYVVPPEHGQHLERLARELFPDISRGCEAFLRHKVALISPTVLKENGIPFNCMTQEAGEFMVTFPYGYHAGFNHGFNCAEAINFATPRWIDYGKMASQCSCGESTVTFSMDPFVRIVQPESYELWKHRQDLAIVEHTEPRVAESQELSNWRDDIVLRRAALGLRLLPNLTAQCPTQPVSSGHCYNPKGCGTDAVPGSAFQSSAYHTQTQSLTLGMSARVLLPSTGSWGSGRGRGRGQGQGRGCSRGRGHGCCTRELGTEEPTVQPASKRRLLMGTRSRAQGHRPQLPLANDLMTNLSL
# Assay: qHTS Assay for Inhibitors of Human Jumonji Domain Containing 2E (JMJD2E)
# Conditions: JMJD2E catalytic domain, FDH-coupled NADH fluorescence (FDH is formaldehyde dehydrogenase); series mostly up to 57.1 µM
# Note: nearly all actives have a fitted effect of over 50% in size.
# Potency is the fitted concentration of half-maximal effect; tags give direction and shape of the fitted curve.
row,SMILES,Potency
1,CC(=O)Nc1ccc(NC(=O)c2cccc(C(=O)OC(C)C)n2)cc1,inactive
2,COC(=O)c1cnn2c3c(c(C)nc12)CCCC3,"inconclusive: 31.6 µM [inhibitor, partial curve]"
3,COc1cc(O)cc(/C=C/c2ccccc2)c1,"inconclusive: 25.1 µM [inhibitor, partial curve]"
4,Cc1cc(C)c(-c2c(O)c3cccc4c3n(c2=O)CCC4)c(C)c1,"inconclusive: 28.2 µM [inhibitor, partial curve]"
5,CC(=O)Nc1ccc(NC(=O)/C=C/c2ccc3c(c2)OCO3)cc1,"inconclusive: 39.8 µM [inhibitor, single point]"
6,O=C(CSc1ccccc1F)NC(=O)NCc1ccco1,inactive
7,Cc1ccccc1N1CCN(S(=O)(=O)c2ccc3oc(=O)ccc3c2)CC1,inactive
8,COc1ccc(Cn2c(=O)c3[nH]cnc3n(-c3ccc(C)cc3)c2=O)cc1,"inconclusive: 22.4 µM [inhibitor, single point]"
9,O=C(Nc1ccon1)c1ccc2c(c1)OCO2,"inconclusive: 39.8 µM [inhibitor, single point]"
10,Cc1cccc(CNc2ncncc2-c2ccc3c(c2)OCO3)c1,"inconclusive: 35.5 µM [inhibitor, single point]"
11,O=C(Nc1nnc(-c2ccccc2Cl)o1)c1nc2ccccc2s1,"inconclusive: 31.6 µM [inhibitor, single point]"
12,CS(=O)(=O)CCNCc1nc(-c2ccc3ncnc(Nc4ccc(OCc5cccc(F)c5)c(Cl)c4)c3c2)cs1,"inconclusive: 39.8 µM [inhibitor, single point]"
13,C[C@H](NC(=O)OCc1ccccc1)c1nnc([C@H](Cc2ccccc2)NC(=O)OC(C)(C)C)o1,inactive
14,O=C1NC(c2ccccc2)=C(c2ccc3ccccc3n2)C(c2ccncc2)N1 (centres undefined),inactive
15,O=C(CSc1ncccn1)NCc1ccccc1,inactive
16,CC(=O)N1CCN(c2nc(N)c(C#N)c(CC#N)c2C#N)CC1,"inconclusive: 25.1 µM [inhibitor, partial curve]"
17,O=C(Cn1nc2ccccc2n1)N/N=C/c1cc(Cl)cc([N+](=O)[O-])c1O,"inconclusive: 28.2 µM [inhibitor, single point]"
18,Cc1ccc(/C=C/C(=O)NCc2ccc3c(c2)OCO3)o1,inactive
19,O=C(NCCO)c1ccc2c3n(nc2c1)-c1ccc(Cl)cc1CO3,"inconclusive: 35.5 µM [inhibitor, single point]"
20,CC(=O)c1cccc(NC(=O)C(OC(=O)c2ccccc2NS(=O)(=O)c2cccs2)c2ccccc2)c1 (centres undefined),"inconclusive: 25.1 µM [inhibitor, single point]"
21,Cc1ccc(C(C)n2cc(C(=O)NCc3cccnc3)nn2)cc1 (centres undefined),inactive
22,CCCCCC(=O)Nc1cc(N(C)C)nc2ccccc12,"inconclusive: 28.2 µM [inhibitor, partial curve]"
23,COC(=O)CN1C(=O)C(O)(CC(=O)c2ccc(C)o2)c2ccccc21 (centres undefined),inactive
24,O=C1N=C(N2CCOCC2)S/C1=C/c1ccc(-c2ccc(F)cc2)o1,inactive
25,CC1CC1C(=O)OCc1cc(=O)n2cc(Br)ccc2n1 (centres undefined),"inconclusive: 39.8 µM [inhibitor, single point]"

row,SMILES,Potency
1,S=C(Nc1ccccc1)N1CCC(C2CCN(C(=S)Nc3ccccc3)CC2)CC1,inactive
2,O=c1[nH]c(CN2CCN(c3ccc(O)cc3)CC2)nc2scc(-c3ccc(Cl)cc3)c12,inactive
3,CCOc1ccc2nc(NC(=O)c3cccc(-c4cc5ccccc5oc4=O)c3)sc2c1,"inconclusive: 3.55 µM [inhibitor, full curve]"
4,Clc1ccc(-n2cccc2CN2CCc3c([nH]c4ccccc34)C2c2ccccn2)nc1 (centres undefined),"inconclusive: 12.6 µM [inhibitor, partial curve]"
5,NS(=O)(=O)c1ccc(N2C(=O)C(=O)/C(=C(/O)c3ccccc3)C2c2ccc(Cl)cc2)cc1 (centres undefined),"inconclusive: 39.8 µM [inhibitor, single point]"
6,COC(=O)/C=C1/SC(=NC(=O)c2ccccc2)NC1=O,inactive
7,c1ccc2c(c1)Cn1nnnc1-2,inactive
8,FC(F)(F)c1cccc(OCCOCCn2cncn2)c1,"inconclusive: 39.8 µM [inhibitor, single point]"
9,O=c1c(-c2ccc(Br)cc2)coc2c(CN3CCOCC3)c(O)ccc12,"inconclusive: 15.8 µM [inhibitor, partial curve]"
10,CCN1CCCC1Cn1cnc2c([nH]c3cc(OC)ccc32)c1=O (centres undefined),"inconclusive: 22.4 µM [inhibitor, single point]"
11,CN1CCc2cc3c(c4c2C1CC41CCC(=NO)CC1)OCO3 (centres undefined),"inconclusive: 28.2 µM [inhibitor, partial curve]"
12,CCOc1ccc(C(=O)NC(=S)NCc2cccnc2)cc1[N+](=O)[O-],inactive
13,Cc1ccnc(NC(=S)NC(=O)/C=C/c2ccc(Cl)cc2)c1,inactive
14,COC(=O)c1ccccc1S(=O)(=O)N(Cc1ccco1)Cc1cc2cc(OC)ccc2[nH]c1=O,"inconclusive: 28.2 µM [inhibitor, partial curve]"
15,CN(C)CCNC(=O)c1ccc(Cl)s1,inactive
16,O=C(Cn1nnc(-c2ccccc2)n1)N/N=C/c1cccc([N+](=O)[O-])c1O,"inconclusive: 39.8 µM [inhibitor, single point]"
17,COc1ccc([C@@H]2C[C@H](c3ccccc3)Oc3cc(OC)c(OC)c(OC)c32)cc1,"inconclusive: 22.4 µM [inhibitor, partial curve]"
18,CCOC(=O)COc1ccc(Br)cc1/C=C/c1[nH]c(=O)[nH]c(=O)c1[N+](=O)[O-],"inconclusive: 39.8 µM [inhibitor, single point]"
19,Fc1ccccc1NC(=S)Nc1cccc2cnccc12,"inconclusive: 39.8 µM [inhibitor, single point]"
20,Cc1cc(N2CCCC2)ccc1/C=N/n1cnnc1,"inconclusive: 25.1 µM [inhibitor, single point]"
21,c1ccc(-c2ccccc2-c2nc(-c3cccnc3)no2)cc1,inactive
22,COC(=O)c1ccc(NC(=O)c2cc(-c3ccccn3)nc3ccccc23)cc1,"inconclusive: 28.2 µM [inhibitor, single point]"
23,CCN(CC)S(=O)(=O)c1ccc2[nH]cc(C(=O)NCCC3=CCCCC3)c(=O)c2c1,inactive
24,Fc1cc2nccnc2cc1N1CCSCC1,inactive
25,Cc1cccc(Nc2nc(N)nc(CN3CCN(c4ccccc4)CC3)n2)c1,inactive

row,SMILES,Potency
1,CCn1c(SCC(=O)NNC(=O)c2ccc(C)cc2)nnc1-c1ccco1,inactive
2,N=C1/C(=C/c2cccn2Cc2ccc(F)cc2)C(=O)N=C2SC=CN12,inactive
3,CCCCn1c(SCC(=O)Nc2nccs2)nc2ccccc2c1=O,inactive
4,c1ccn2cc(C34CC5CC(CC(C5)C3)C4)nc2c1,"inconclusive: 35.5 µM [inhibitor, single point]"
5,Nc1nsc2ccccc12,"inconclusive: 31.6 µM [inhibitor, partial curve]"
6,CC(C)Cn1c(N)c(C(=O)COC(=O)c2cc(C(F)(F)F)nc3c(C(F)(F)F)cccc23)c(=O)n(C)c1=O,inactive
7,CC[n+]1c(/C=C/Nc2ccccc2)oc2ccc(OC)cc21,"inconclusive: 28.2 µM [inhibitor, single point]"
8,CCCCn1c(=O)nc2n(-c3ccc(Cl)cc3)c3ccccc3cc-2c1=O,"inconclusive: 15.8 µM [inhibitor, partial curve]"
9,CCCOC(=O)c1ccc(Oc2cn[nH]c2-c2ccc(OCC(=O)NN)cc2O)cc1,"inconclusive: 39.8 µM [inhibitor, single point]"
10,O=C(Nc1cc(SCC(O)CO)cc([N+](=O)[O-])c1)c1ccc(-n2cnnn2)cc1 (centres undefined),inactive
11,Cc1ccc(NC(=O)Nc2ccccc2C(=O)NCc2ccccc2)cc1,"inconclusive: 39.8 µM [inhibitor, single point]"
12,Cc1ccc(CN2CCN(Cc3ccc4cc(F)ccc4n3)CC2CCO)o1 (centres undefined),"inconclusive: 15.8 µM [inhibitor, partial curve]"
13,O=S(=O)(c1ccccc1)N(C1=NCCS1)S(=O)(=O)c1ccccc1,inactive
14,CCOc1ccc(NC(=S)N2CCN(CCN3C(=O)c4cccc5cccc(c45)C3=O)CC2)cc1,inactive
15,CCOc1cc(-c2nc(-c3ccccc3OC)no2)cc(OCC)c1OCC,"inconclusive: 28.2 µM [inhibitor, single point]"
16,COc1ccccc1-c1nnc(NC(C)=O)s1,"inconclusive: 28.2 µM [inhibitor, partial curve]"
17,Clc1ccc2nc3ccccn3c2c1,"inconclusive: 28.2 µM [inhibitor, partial curve]"
18,COc1ccc2c(c1)[N+](C)(C)C(C)(C)C=C2C,active: 20 µM
19,CCOC(=O)Oc1ccc2c(=O)c(Oc3cc(C)cc(C)c3)coc2c1,"inconclusive: 20 µM [inhibitor, single point]"
20,COc1ccc(-c2nc(C#N)c(N3CCN(c4ccccc4)CC3)o2)cc1,"inconclusive: 28.2 µM [inhibitor, partial curve]"
21,COc1ccc(-c2cc(C(F)(F)F)c(C#N)c(=O)[nH]2)cc1,"inconclusive: 31.6 µM [inhibitor, partial curve]"
22,Cc1ccc(-c2cc(-c3ccccc3Cl)c(C#N)c(N)n2)o1,"inconclusive: 31.6 µM [inhibitor, partial curve]"
23,CNC(=O)NNC(=O)c1nc(-c2ccccc2)c(C)o1,"inconclusive: 28.2 µM [inhibitor, single point]"
24,O=C(c1cnn(-c2ccccc2)c1)c1ccccc1O,inactive
